# Results taken from PMC12040169 (PLOS Biology, 2025).
# This is one part of the list.
# System: T1, C. trachomatis L2/434/Bu expressing GFP (CTL2-GFP)
# T1 construct: L2/434/Bu GFP intracellular growth in HeLa cells
# Parameters: species or system HeLa; C. trachomatis total inclusion area by high-content imaging, normalised to DMSO
# Settings: total inclusion area; 28.5 h, 10 µM; inhibitor
# In short: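 Bulk GFP and resorufin signals were read first. Wells were then fixed, stained with Hoechst and imaged to detect GFP inclusions and host nuclei. MICs followed the previously described calculation.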
row,Structure (SMILES),% of control remaining
1,CC(C)Oc1ccccc1CN(C)C(C)c1ccc(S(N)(=O)=O)cc1 (centres unmarked) [CBK305436],52.9104
2,COc1cccc(CN(Cc2ccco2)Cc2cncn2C)c1 [CBK282497],115.079
3,COC(=O)c1ccc(N2C(=O)CC(NCCc3ccc(S(N)(=O)=O)cc3)C2=O)cc1 (centres unmarked) [CBK262859],117.357
4,CCn1ncc(Cn2cc(NC(=O)C3CCCCC3C(=O)O)cn2)c1C (centres unmarked) [CBK286859],65.8521
5,O=C(Cn1cccc2cc(-c3cccs3)nc1-2)NC1CC1 [CBK281897],100.938
6,O=C1c2ccccc2S(=O)(=O)N1CC(O)Cn1c2ccc(Br)cc2c2cc(Br)ccc21 (centres unmarked) [CBK262347],91.4416
7,COc1ccc(OC)c(C(C)NC(=O)C2CCN(CCc3c[nH]c4ccccc34)CC2)c1 (centres unmarked) [CBK148763],89.7652
8,CN(C)C(=O)C1(Cc2ccc(-c3cccs3)cc2)CCN(C(=O)Cc2ccccc2)CC1 [CBK285784],111.016
9,COc1ccc(SCC(=O)O)cc1 [CBK111455],93.0627
10,CN1CCCCC[C@@H]2[C@@H]1[C@H](c1ccccc1)CN2C(=O)CN1CCCCCC1=O [CBK285524],89.6499
11,Cc1ccc(C(=O)NNC(=S)Nc2ccc(S(N)(=O)=O)cc2)cc1[N+](=O)[O-] [CBK266866],109.734
12,CN(C)CCN(C)c1cncc(-c2ccc3c(c2)OCO3)n1 [CBK065897],135.587
13,Cc1nccn1CC1(O)CCN(Cc2ccccc2F)CC1 [CBK284961],88.4949
14,COc1ccc(F)cc1-c1ccccc1CC1(C(=O)NCc2cccs2)CCOCC1 [CBK286416],97.7623
15,Cc1cccc2c3c([nH]c12)CCN(C(=O)[C@@H]1C[C@@H]2C=C[C@H]1C2)C3 [CBK281656],88.8135
16,Cc1ccc(F)c(CN2CCN(CCO)[C@@H]3CS(=O)(=O)C[C@@H]32)c1 [CBK307699],73.411
17,Cc1cc2ncc(-c3[nH]ncc3[N+](=O)[O-])cn2n1 [CBK269106],79.7391
18,O=C(N/N=C/c1c[nH]nc1-c1ccccc1)c1cccnc1 [CBK262461],100.257
19,Nc1nc(N)c2ncn([C@H]3C[C@@H](O)[C@@H](CO)O3)c2n1 [CBK201208],84.4478
20,CC(=O)N1CCC[C@H]2NC(=O)CNC(=O)C3(C/C=C/C[C@H]21)CCN(C(=O)c1cc(C)no1)CC3 [CBK292176],76.2524
21,CN(C)CCOCc1ncccc1OCCOC1CCCCO1 (centres unmarked) [CBK045662],100.305
22,COc1ccc(C(NC(=O)c2c(C)nc3sccn23)C2CC(O)C2)cn1 (centres unmarked) [CBK307330],52.7525
23,COC(=O)C1=C(C)N=C2SCCC(=O)N2C1c1ccc(C(C)C)cc1 (centres unmarked) [CBK073523],51.8176
24,CC(C)Nc1nccnc1-c1cccc(O)c1 [CBK037089],97.8156
25,COc1cc(CNn2cnnc2S)ccc1OCC(N)=O [CBK265877],109.384

row,Structure (SMILES),% of control remaining
1,Cc1cc(NC(=O)c2cc(C)[nH]n2)c2ccccc2n1 [CBK116260],108.57
2,O=C(O)c1ccc(S(=O)(=O)N(CC2CC=CCC2)CC2CCCO2)cc1 (centres unmarked) [CBK286685],61.1158
3,CCN(CC)CCN1CCN(c2cncc(-c3cccc(N)c3)n2)CC1 [CBK065751],118.868
4,CCOC(=O)Cn1nnc(-c2ccc(Cl)cc2)n1 [CBK069596],99.1104
5,O=C(NC(n1cnc2c(N3CCCCC3)ncnc21)C(Cl)(Cl)Cl)c1ccccc1 (centres unmarked) [CBK261038],71.8334
6,CC(=O)Nc1cccc(-c2cnc(N)c(NCc3cccnc3)n2)c1 [CBK063562],100.151
7,CC1CCN(S(=O)(=O)c2ccc(NC(=O)CCn3c(=O)oc4ccccc43)cc2)CC1 [CBK268040],109.434
8,N#Cc1cccc(CN2CCC(Cc3ccccc3)CC2)c1 [CBK126380],95.3338
9,COC(=O)c1ccccc1NC(=O)Nc1ccc(N2CCOCC2)c2nonc12 [CBK266830],55.881
10,CC(C)(C)NC(=O)CN1C(=O)N2CCCN=C2c2ccc(Cl)cc21 [CBK284391],83.9422
11,O=C(C1=C(O)C(=O)N(CCCN2CCOCC2)C1c1ccccn1)c1ccc(Cl)cc1 (centres unmarked) [CBK266445],91.5634
12,CCOc1cccc(-c2cn3ccnc3c(NCCc3ccccn3)n2)c1 [CBK066586],127.287
13,Cc1cc(NC(=O)CCc2c(C)nc(N3CCOCC3)[nH]c2=O)no1 [CBK305636],28.4076
14,COc1ccccc1-c1cnc2[nH]c(=O)n(Cc3ccc(F)c(Cl)c3)c2n1 [CBK064662],94.2644
15,NS(=O)(=O)c1ccc(CCNC(=O)c2cccnc2)cc1 [CBK268158],91.4038
16,CCN(CC)CCN(C(=O)N1CCCC1)c1c(C)cccc1C [CBK023237C],63.491
17,Cc1ccc(-n2nc(C(=O)O)c(C)c(C#N)c2=O)cc1C [CBK286987],91.5863
18,CCOC(=O)c1c(NC(=O)CSc2n[nH]c(N)n2)sc(C)c1C [CBK266412],96.4165
19,C/C(=N/NC(=O)C[N+](C)(C)C)c1nn(-c2ccc(Cl)cc2)nc1C [CBK008258C],44.366
20,O=C(O)CSc1nnc(SCc2cccc3ccccc23)s1 [CBK266215],113.527
21,O=C(NCc1cc[nH]n1)N1CCCN(Cc2cccs2)CC1 [CBK305645],65.9201
22,Cc1nnc(-c2cccc(S(=O)(=O)Nc3nnc(C(F)(F)F)s3)c2)o1 [CBK062014],92.3055
23,O=C(O)CCN/C(=N\S(=O)(=O)c1ccccc1)c1ccccc1 [CBK266111],133.395
24,Cc1ccc(OCC(=O)NNC(=O)c2ccco2)cc1 [CBK261800],85.9416
25,O=C(Oc1cccc(-c2cnc3ccccc3n2)c1)c1ccc(S(=O)(=O)N2CCCCC2)cc1 [CBK267785],118.645
